# Data published in article PMC4336329 (PLoS ONE, 2015).
# Screen size: about 310,000 compounds; about 2,200 (0.71%) showed an effect of 50% or more. The effect is printed as a negative number. This is one part of the list.
# Molecular target: human ether-à-go-go-related gene (hERG) potassium channel (human, UniProt Q12809)
# Test: primary screen, population patch clamp on CHO cells stably expressing hERG
# Sequence of human ether-à-go-go-related gene (hERG) potassium channel (Q12809 whole entry, looked up): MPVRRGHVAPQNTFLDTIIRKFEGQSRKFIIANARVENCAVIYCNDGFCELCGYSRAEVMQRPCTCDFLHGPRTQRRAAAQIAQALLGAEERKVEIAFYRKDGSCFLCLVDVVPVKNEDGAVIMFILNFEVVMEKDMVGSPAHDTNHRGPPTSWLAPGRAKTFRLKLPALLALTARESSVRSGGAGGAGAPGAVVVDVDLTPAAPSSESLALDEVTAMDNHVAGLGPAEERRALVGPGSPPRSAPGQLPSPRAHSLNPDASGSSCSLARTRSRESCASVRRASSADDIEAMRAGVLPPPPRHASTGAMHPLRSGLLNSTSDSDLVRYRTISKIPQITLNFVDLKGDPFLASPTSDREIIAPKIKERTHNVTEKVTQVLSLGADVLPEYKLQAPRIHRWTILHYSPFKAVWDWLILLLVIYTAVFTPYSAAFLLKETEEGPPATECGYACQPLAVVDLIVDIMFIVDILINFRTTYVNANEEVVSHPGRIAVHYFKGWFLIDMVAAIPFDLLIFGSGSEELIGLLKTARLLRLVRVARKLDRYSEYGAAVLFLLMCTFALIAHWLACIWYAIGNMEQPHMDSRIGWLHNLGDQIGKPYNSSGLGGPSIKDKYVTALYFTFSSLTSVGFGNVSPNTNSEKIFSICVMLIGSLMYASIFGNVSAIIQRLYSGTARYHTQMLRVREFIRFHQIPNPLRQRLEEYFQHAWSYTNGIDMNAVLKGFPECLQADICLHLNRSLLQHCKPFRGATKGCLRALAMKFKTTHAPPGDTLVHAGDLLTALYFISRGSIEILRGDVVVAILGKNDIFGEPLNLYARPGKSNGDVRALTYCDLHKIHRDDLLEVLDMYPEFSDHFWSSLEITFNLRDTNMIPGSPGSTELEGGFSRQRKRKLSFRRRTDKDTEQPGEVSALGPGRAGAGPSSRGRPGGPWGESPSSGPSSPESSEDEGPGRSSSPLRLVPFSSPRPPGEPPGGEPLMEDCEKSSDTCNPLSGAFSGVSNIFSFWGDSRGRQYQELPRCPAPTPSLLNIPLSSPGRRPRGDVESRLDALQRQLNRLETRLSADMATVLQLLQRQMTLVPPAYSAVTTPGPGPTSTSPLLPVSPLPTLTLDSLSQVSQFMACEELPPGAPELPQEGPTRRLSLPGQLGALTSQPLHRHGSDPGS
row,SMILES,"hERG current change (%, negative = inhibition) at 1uM [%]"
1,COc1cccc(C(=O)Nc2cc(C)ccc2NC(=O)COc2ccccc2)c1,12.2
2,O=C(O)CSc1cccc2cccnc12,12.9
3,CCC1(C)Cc2nc3[nH]c(=S)n(-c4ccccc4)c(=O)c3cc2CO1 (stereo not shown),14.2
4,O=C(c1cccs1)n1nc(-c2ccccc2)nc1NCc1ccc(F)cc1,-24
5,COc1ccc(-c2csc(N(CCCN(C)C)C(=O)c3cccs3)n2)cc1.Cl,-51.6
6,Cc1nc2ncnn2c(C)c1CCC(=O)NC(C)CCc1ccco1 (stereo not shown),6.81
7,O/N=C/c1ccc2ccccc2c1,2.15
8,CCC(C)Nc1nc2c(c(=O)n(C)c(=O)n2C)n1Cc1ccc(F)cc1 (stereo not shown),8.54
9,CCn1c(SCc2nnc(-c3ccccc3)o2)nnc1-c1ccc(S(=O)(=O)N2CCCC2)cc1,-7.27
10,Cc1ccc(-n2nc(C(=O)O)c(C)c(C#N)c2=O)cc1Cl,12.2
11,CCN1C(=O)C(CC(=O)Nc2ccc(OC)cc2)N(CCCN2CCN(c3ccc(F)cc3)CC2)C1=S (stereo not shown),-2.73
12,O=c1oc(-c2cccs2)nc2ccccc12,8.5
13,CC(=O)N(c1nc(CCl)cs1)c1c(C)cc(C)cc1C,11.7
14,Fc1ccc(C[n+]2c(-c3ccccc3)cc(-c3ccccc3)cc2-c2ccccc2)cc1.[O-][Cl+3]([O-])([O-])[O-],-27.1
15,CCCCCSc1nnc(-c2cc(Br)ccc2N)c(=O)[nH]1,5.76
16,Cc1ccc([N+](=O)[O-])cc1NC(=O)Cc1cccs1,4.01
17,N#CCCn1nc(-c2ccccc2)cc1Nc1ccccc1NC(=O)C(F)(F)F,-3.12
18,O=C(Nc1ccccc1N1CCOCC1)c1ccc(Cl)c(S(=O)(=O)NCc2ccco2)c1,-8.24
19,CCc1cc2c(=O)n(N)c(CCC(=O)O)nc2s1,-2.13
20,CCOCCOC(=O)COc1ccc2c(=O)c(Oc3ccc(OC)cc3)coc2c1,16.3
21,COc1cccc(CN2CCN(Cc3nc(C(C)C)cs3)CC2CCO)c1 (stereo not shown),-20
22,O=C(/C=C/c1ccc2c(c1)OCO2)NCc1ccco1,11.3
23,CCc1ccc(-c2cc(C(=O)NN3CCN(C)CC3)c3ccccc3n2)cc1,-10.2

row,SMILES,"hERG current change (%, negative = inhibition) at 1uM [%]"
1,COc1ccc(C(=O)NCC(=O)OCc2ccc(Cl)cc2Cl)cc1OC,12.3
2,Cc1nonc1NC(=O)OCCN1CCOC1=O,11.7
3,CN(c1cccc(Cl)c1)S(=O)(=O)c1cccc(C(=O)NC2=NCCS2)c1,8.55
4,COc1ccc2c(CC(=O)OCC(=O)c3ccc(F)cc3)coc2c1,11.4
5,Cc1ccc(S(=O)(=O)N2CCOCC2)cc1NC(=O)CSc1nnc(NC2CC2)s1,5.08
6,CS(=O)(=O)N1CCN(c2ccc([N+](=O)[O-])cc2C(F)(F)F)CC1,-21.9
7,CCc1occc(=O)c1Oc1cc(NN2CCCCC2)c([N+](=O)[O-])cc1[N+](=O)[O-],4.71
8,COc1cccc(/C=C2/SC(=S)N(CC(=O)NNC(=O)c3ccccc3O)C2=O)c1,18.8
9,Cc1ccc(NCN2C(=O)C3C4C=CC(C4)C3C2=O)cc1 (stereo not shown),6.97
10,O=S1(=O)CCC(S(=O)(=O)N2CCCCCC2)C1 (stereo not shown),9.75
11,O=C(OCC(=O)N1CCOCC1)c1cccc(S(=O)(=O)N2CCCc3ccccc32)c1,0.941
12,O=C(Nc1cccc(Cl)c1N1CCOCC1)c1ccc(Br)o1,4.08
13,O=C(NCCNC(=O)c1cc(Cl)ccc1Cl)c1cnccn1,7.08
14,COc1ccc(S(=O)(=O)N(C)CC(=O)NCCC2=CCCCC2)cc1C,-4.9
15,CCCOc1ccc(C(=O)C(c2ccccc2)N2CCOCC2)cc1.Cl (stereo not shown),10.8
16,CC(C)COc1ccc(-c2nn(-c3ccccc3)cc2CO)cc1,4.83
17,Clc1ccccc1OCCCCN1CCCC1,-1.01
18,O=C(C1=C(O)C(=O)N(CC2CCCO2)C1c1cccc(Cl)c1)c1ccco1 (stereo not shown),10.1
19,COc1ccc(C)c2sc(N(CCN(C)C)C(=O)c3cccc(N4C(=O)CCC4=O)c3)nc12.Cl,-19.7
20,CC(=O)Nc1ccc(NC(=O)Nc2cccc3ccccc23)cc1,9.7
21,CNC(=S)Nc1ccc2nc(C)c(C)nc2c1,17
22,CCn1c(O)c(/C=C2\C=NN=C2c2ccc(C)cc2)sc1=S,7.69
23,CCOC(=O)CN(C(=O)c1ccccc1)c1ccccc1C,5.8
